Measured values from the supplement of paper PMC3334620.
The full ranking holds about 33,000 sequences; the median of “E-score (-0.5 to 0.5)” is about -0.012, and the highest 2% start at about 0.29. This is one part of the list.

The sequences below were run against T1, Ybr033w (UniProt P38073) (assay: PBM E-score (8-mer binding enrichment) (E-score (-0.5 to 0.5)); higher = stronger / more preferred TF binding; most listed sequences are background and not binding sites). Settings: protein concentration: 200 nM; construct: GST-full length.
T1 sequence: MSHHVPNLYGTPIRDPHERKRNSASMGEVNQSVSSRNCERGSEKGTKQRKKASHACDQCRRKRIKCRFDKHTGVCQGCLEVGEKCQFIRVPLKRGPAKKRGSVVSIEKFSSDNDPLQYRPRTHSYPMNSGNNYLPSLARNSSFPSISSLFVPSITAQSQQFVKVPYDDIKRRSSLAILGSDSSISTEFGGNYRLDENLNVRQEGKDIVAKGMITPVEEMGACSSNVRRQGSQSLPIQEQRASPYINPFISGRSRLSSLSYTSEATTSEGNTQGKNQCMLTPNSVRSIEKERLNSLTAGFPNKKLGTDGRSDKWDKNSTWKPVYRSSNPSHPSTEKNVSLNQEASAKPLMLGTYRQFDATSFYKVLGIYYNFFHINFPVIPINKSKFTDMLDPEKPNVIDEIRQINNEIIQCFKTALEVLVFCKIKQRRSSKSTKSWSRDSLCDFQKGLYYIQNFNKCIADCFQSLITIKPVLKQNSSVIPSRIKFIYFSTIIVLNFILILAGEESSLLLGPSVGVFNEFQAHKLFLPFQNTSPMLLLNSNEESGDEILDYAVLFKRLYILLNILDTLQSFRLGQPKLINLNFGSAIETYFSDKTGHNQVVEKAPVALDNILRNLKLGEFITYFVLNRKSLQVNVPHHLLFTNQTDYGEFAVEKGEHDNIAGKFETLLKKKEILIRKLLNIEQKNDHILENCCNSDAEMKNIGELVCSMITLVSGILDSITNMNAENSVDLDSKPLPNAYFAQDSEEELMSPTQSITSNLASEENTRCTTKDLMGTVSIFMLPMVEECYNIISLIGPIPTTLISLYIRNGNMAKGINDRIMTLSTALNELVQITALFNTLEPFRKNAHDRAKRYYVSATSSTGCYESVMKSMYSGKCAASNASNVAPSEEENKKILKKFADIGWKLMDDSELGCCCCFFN
Procedure: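 Universal 'all 10-mer' protein binding microarrays (Agilent AMADID 015681) probed with GST-tagged S. cerevisiae TFs (full-length or DBD) made by in vitro transcription/translation (PURExpress), about 100-200 nM. Bound TF was detected with fluorescent anti-GST. Each ungapped 8-mer (which stands for itself and its reverse complement) is scored by the PBM enrichment score (E-score), a modified Wilcoxon-Mann-Whitney statistic from -0.5 to +0.5, computed with the Universal PBM Analysis Suite. Scale: above 0.35 generally sequence-specific binding.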

Sequence | PBM E-score
CCTGGAAC | -0.068
AGGTCAAC | -0.0296
GCTAGAAC | -0.0465
ATCGTCGA | -0.0364
CCTGGCCA | -0.245
CCCCCAAA | -0.26
CCTCTGAG | -0.205
TACCGCAA | 0.0331
ACACGTTG | -0.052
ACATCCCC | -0.178
AGAAACGA | 0.151
ATGCCCCG | -0.215
GAGATCGC | -0.00988
ACGGTGAG | -0.135
CCATGGTA | -0.0465
CATCCTGA | 0.0802
TGAACTAA | 0.142
AATGTACC | -0.0693
CCTACTCA | -0.093
CGTTTCCC | -0.15
AAGTTATC | 0.143
CTCGAGAG | -0.193
GGATAACC | -0.053
AGAGGGCG | -0.123
GACCTGAC | 0.0633

Sequence | PBM E-score
ACAGTGAA | 0.136
CCCAGTAG | -0.0146
GGCATAAA | 0.167
AAAGACAG | 0.247
GTAGGAGA | -0.0724
GAGGCCCA | -0.28
AGCCCCTA | -0.253
AAGCGGAG | -0.121
CGCACAGA | 0.0461
CGCGACAG | -0.108
CTCCGTAA | 0.0782
CCCATCTC | -0.155
AAGATCTT | 0.206
CTCTGCAG | -0.135
CTTTTTAA | 0.114
CGGCGTCA | -0.237
CGATTTCA | -0.0921
CAGGACTA | -0.0422
CAACTATG | 0.102
CCCTTGAC | -0.114
CTCGTTTA | -0.00935
CGTTTCCA | -0.0573
CGGAACTC | 0.0371
CCAGCCGA | -0.209
ACTATCAA | 0.248

Sequence | PBM E-score
ACAAGCGG | 0.0936
ATCATGAC | 0.0647
ATGAGAAC | 0.108
GATGTCAC | 0.066
ACCGTAAT | -0.0273
AATAGACC | -0.0276
TCTAATCA | 0.188
CATGCTTA | -0.0397
AAGCGTCT | -0.119
CTACGTAG | -0.0135
GGATTTTA | 0.092
CACCGTAC | -0.0902
AAATCCTG | 0.163
CCTAAAGA | -0.0735
GAGATTCA | 0.105
TGGAAACA | -0.0929
ACGAACAC | 0.0804
AGTGGCTA | -0.183
GTAATCGA | 0.0467
CAATGACG | -0.158
TATTATCA | 0.153
AGGCCTTA | -0.163
ATGTAAGC | 0.125
GCCTATCA | 0.0241
ATGTGATC | 0.0552

Sequence | PBM E-score
CGTATAAA | 0.291
ATCACTTG | 0.0311
GCGGGGGA | -0.21
GGTCGCAA | -0.054
CCATCACC | -0.146
ATATAGGA | 0.133
CTCCTTTC | -0.119
CAGCGTAC | -0.237
AAGCTTTA | 0.0466
ACACTTCC | 0.0571
ACCGTGTC | -0.117
CCAAGGCA | -0.143
GACCCAAC | -0.0289
CTCCGGCA | -0.0382
GGGTCGAC | -0.206
AATGTCGC | -0.145
ATTTCTCA | 0.192
TCAAATAA | 0.202
AGGGTATA | 0.192
ATGGGTTC | -0.15
ACTGTAGA | 0.127
CAGGTCGC | -0.187
CGGGGTAC | -0.401
GAGGGTAA | -0.0946
ACCTCGGG | -0.309

Sequence | PBM E-score
GTTTTATA | 0.0686
ACGATTCT | 0.104
ACTCAATG | 0.0914
GACAGATC | 0.031
ACAAAACC | 0.198
CATTTATC | 0.278
AACTCCCT | -0.021
GACGACCC | -0.306
CTGCTCTC | -0.153
GCATCTAC | 0.0696
CGCCGTAC | -0.0656
ACTCCGAG | -0.00106
CAACGCCG | -0.229
CCACAAGC | -0.184
GACTCAGC | -0.1
ACTCAGTA | 0.27
AAGGCACC | -0.199
CTACTCAA | 0.248
CCGTGTAA | 0.0401
CAGCTTTC | -0.13
GCGGGGCA | -0.227
AACAGAAG | 0.00835
CTACGCGC | -0.048
GCGATTGA | 0.0814
TAAGGCCA | -0.154

Sequence | PBM E-score
GCGGTGAC | -0.0896
TCTGCGAA | -0.214
ACAGTTCT | 0.0471
CGAGCAAG | -0.15
ACGTGTCA | -0.0785
AAGTGAGA | 0.017
CGCTCGTA | 0.0896
TAACTGCA | 0.162
CTACAATA | 0.164
TAGCGGGA | -0.122
GCTACAAC | 0.0399
TCGATGAA | 0.0419
ATCATCAA | 0.246
ATTCTCTC | -0.0621
GTCCCTCA | -0.31
CGGTCTCA | -0.125
GTCAAGCA | -0.187
AGTTAAAT | 0.121
ATTCAACC | -0.0157
AGTCGCTG | -0.108
TAAGTGGA | 0.152
CCGGAAGC | 0.0751
ATCTCCAA | 0.198
ACAGTAAG | 0.0874
CTATATTC | 0.215

Sequence | PBM E-score
ACGAGGCT | -0.0943
CTAATGGA | 0.0991
CCCCGATC | -0.36
GGGCATGA | -0.261
GTGTTTTA | 0.127
CCTCCGGA | -0.0985
AACGAGGT | -0.0684
ATTAACCA | 0.0788
AACACCAG | -0.148
CCGAGCAG | -0.32
TTTCAAAA | 0.253
AACTGGTA | -0.0156
TAGGGGGA | -0.3
GTTCCGAA | 0.29
AGTACACT | -0.00323
TCAGCAGA | -0.126
ACCGCTTC | -0.071
CCAGGTGA | -0.0761
AGGGGGAC | -0.353
CCAATCTC | 0.0623
ACCTAACC | 0.0922
ATGGTATG | -0.0322
